Measured values: PubChem BioAssay (NCI)
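Test compounds were applied to cells in 96-well plates for 48 hours at 5 doses. Abbreviation: GI50, concentration required for 50% inhibition of growth. TGI marks complete inhibition of growth.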

Test system: NCI-H322M lung
Test: DTP human tumour cell line panel, 48 h

Structure (SMILES) | TGI | GI50
Cc1[nH]c(=O)nc2c1C(=O)N(C(C)C)C(NC(C)C)S2 (centres undefined) | > 100 µM | 
C=C(Cl)C(Cl)(CBr)CCC(Cl)C(C)C (centres undefined) | 15.2 µM | 
O=C(C(=O)n1ccc2ccccc21)c1c[nH]c2ccccc12 | > 10 µM | 
COc1ccc(/C(C)=C(\c2ccc(Cl)cc2)c2ccc(OCCN3CCCCC3)cc2)cc1F | > 16.7 µM | 4.67 µM
CN(C)/C=C/c1ccnc2c1C(=O)c1ccccc1C2=O | 29.1 µM | 
CC(=O)NC(Cc1ccccc1)C(=S)N1CCCC1 (centres undefined) | > 100 µM | 
COc1cc2c(oc(=O)c3c4oc([Si](C)(C)C)cc4cc(OC)c23)c2cccc(O)c12 | > 100 µM | 
O=C(Cl)c1cc([N+](=O)[O-])cc([N+](=O)[O-])c1 | > 100 µM | 
Clc1ccc(CCN2CCN(CCCc3ccccc3)CC2)cc1Cl | 33.1 µM | 
Nc1nc(NC(=O)C2=NS(=O)(=O)c3cc(S(N)(=O)=O)c(Cl)cc3N2)n[nH]1 | > 100 µM | 
O=C(/C=C\c1ccc(Cl)c(Cl)c1)c1ccccc1 | 27.1 µM | 14 µM
Cc1nc2c(=O)n(C)c(=O)nc-2n(-c2ccc(Cl)cc2)c1C | > 100 µM | 
